Test results from PubChem BioAssay AID1347165 (National Center for Advancing Translational Sciences (NCATS), 2019).
Where “and” joins values, the source holds several entries; their conditions need not be identical. Equal entries are not always repeated. Out of some 220,000 compounds screened, about 5,700 (2.6%) were called active. The inconclusive results got no clear call from the source; some entries with a clear call stand among them for comparison. Calls come from the whole dose curve; as a rule, active = well fitted inhibition curve with a large enough effect; inconclusive = small, poorly fitted or top-dose-only effect; inactive = no such curve, though single readings can be large or run the other way. A potency beside an inconclusive call is a rough fit, not a confirmed value.

What follows are compounds tested against Lysine-specific demethylase 5B (Homo sapiens) (UniProt Q9UGL1) (assay: Primary screen for KDM5B Histone Demethylases FDH-coupled qHTS). Settings: FDH-coupled NADH fluorescence (FDH is formaldehyde dehydrogenase); activity change, negative = inhibition: at 57.7 µM (top of the series) unless noted.
Sequence of UniProt Q9UGL1 (Q9UGL1 whole entry, looked up): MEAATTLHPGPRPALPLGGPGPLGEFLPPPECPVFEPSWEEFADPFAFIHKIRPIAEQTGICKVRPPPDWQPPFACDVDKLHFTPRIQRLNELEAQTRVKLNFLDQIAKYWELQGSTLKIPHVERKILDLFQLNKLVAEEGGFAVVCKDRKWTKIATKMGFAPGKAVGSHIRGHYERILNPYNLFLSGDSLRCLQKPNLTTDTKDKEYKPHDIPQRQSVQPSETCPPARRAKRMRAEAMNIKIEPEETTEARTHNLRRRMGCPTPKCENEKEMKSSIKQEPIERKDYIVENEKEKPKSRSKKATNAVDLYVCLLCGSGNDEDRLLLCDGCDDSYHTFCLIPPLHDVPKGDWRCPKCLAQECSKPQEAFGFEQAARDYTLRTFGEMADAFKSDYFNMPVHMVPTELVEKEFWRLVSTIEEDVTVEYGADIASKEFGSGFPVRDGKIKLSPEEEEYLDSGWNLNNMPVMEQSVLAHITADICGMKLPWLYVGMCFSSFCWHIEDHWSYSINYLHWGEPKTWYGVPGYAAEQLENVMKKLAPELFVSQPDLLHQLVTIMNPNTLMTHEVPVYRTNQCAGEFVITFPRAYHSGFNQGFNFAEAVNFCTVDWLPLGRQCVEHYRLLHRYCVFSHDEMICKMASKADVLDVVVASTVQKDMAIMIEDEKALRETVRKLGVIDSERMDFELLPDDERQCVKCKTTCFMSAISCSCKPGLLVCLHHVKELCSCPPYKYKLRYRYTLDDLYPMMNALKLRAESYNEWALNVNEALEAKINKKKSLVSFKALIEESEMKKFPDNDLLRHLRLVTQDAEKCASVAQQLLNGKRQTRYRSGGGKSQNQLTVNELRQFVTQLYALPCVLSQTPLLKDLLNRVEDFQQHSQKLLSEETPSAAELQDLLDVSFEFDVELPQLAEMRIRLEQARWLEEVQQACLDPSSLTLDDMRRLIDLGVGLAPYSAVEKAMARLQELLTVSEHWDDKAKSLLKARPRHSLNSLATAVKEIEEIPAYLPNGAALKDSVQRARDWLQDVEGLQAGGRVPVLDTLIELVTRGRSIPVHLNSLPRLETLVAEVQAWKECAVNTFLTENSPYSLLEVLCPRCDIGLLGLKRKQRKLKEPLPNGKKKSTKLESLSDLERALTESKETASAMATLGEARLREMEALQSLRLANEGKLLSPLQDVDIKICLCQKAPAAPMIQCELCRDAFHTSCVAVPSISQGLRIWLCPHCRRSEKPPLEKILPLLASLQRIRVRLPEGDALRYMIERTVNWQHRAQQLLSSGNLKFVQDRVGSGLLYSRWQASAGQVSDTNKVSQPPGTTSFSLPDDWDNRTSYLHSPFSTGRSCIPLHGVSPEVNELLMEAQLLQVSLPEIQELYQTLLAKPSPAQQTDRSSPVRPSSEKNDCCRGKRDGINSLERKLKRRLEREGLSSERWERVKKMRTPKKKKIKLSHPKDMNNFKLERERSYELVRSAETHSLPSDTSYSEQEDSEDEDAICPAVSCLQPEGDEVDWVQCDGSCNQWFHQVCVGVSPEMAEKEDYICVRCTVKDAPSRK
Procedure, shortened: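 Compound dilutions met 200 nM (final) KDM5BΔAP for 10 min at room temperature before substrate addition. The substrate mix held 12.5 µM H3K4me3 with cofactors 25 µM α-ketoglutarate and 50 µM Fe²⁺. NADH signal gain over 30 min defined activity.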
Note: nearly all actives have a fitted effect of over 70% in size.
Potency is the fitted concentration of half-maximal effect; tags give direction and shape of the fitted curve.
Throughout, for activity change, negative = inhibition: 0% is about no effect.

Structure (SMILES)	Potency	activity change, negative = inhibition
Cn1ncc2c(C(=O)N3CCOCC3)cc(-c3ccc(Cl)nc3)nc21	inconclusive: 50.1 µM [inhibitor, partial curve]	
O=C(Nc1nn(-c2cccc(F)c2)c2cccc(N3CCOCC3)c12)C1CCC1	active: 31.6 µM	
Cc1cc(C)cc(C(=O)N2CCN(c3cc(-c4ccccc4)[nH]n3)CC2)c1		inactive: -27.2%
O=C(NCc1ccc(F)cc1)c1nc(-c2ccc(Cl)cc2Cl)c2ccccn12	inconclusive: 50.1 µM [inhibitor, partial curve, poor fit]	
O=C(C1=COCCO1)N1CCN(c2ccccc2)CC1	inconclusive: 10 µM [inhibitor, partial curve, poor fit]	
O=C(Nc1ccc([C@H]2OCC(=O)N(Cc3ccc(F)cc3)[C@@H]2CO)cc1)C1CCC1		inactive: -9.62% [at 86.2 µM]
CC(C)CNC(=O)NC(=O)COC(=O)c1cc(-c2ccco2)nc2ccccc12	inconclusive: 39.8 µM [inhibitor, single point]	
O=[S+]([O-])(c1cccc(C(F)(F)F)c1)N1CCC2(CCN(Cc3cccs3)c3ccccc3O2)CC1	active: 15.8 µM and active: 11.2 µM	
Cc1cccn2cc(-c3cccc(NC(=O)C(C)C)c3)nc12	inconclusive: 28.2 µM [inhibitor, partial curve, poor fit]	
Cc1ccc(S(=O)(=O)c2nnn3c2nc(NCCCOC(C)C)c2ccccc23)cc1C	inconclusive: 50.1 µM [inhibitor, partial curve]	
CCOC(=O)c1cnc(Nc2ccc(C)cc2)c2ccccc12		inactive: -26.3%
COCC1(C(=O)N2CCN(C)C3(CCNC(=O)CC3)C2)CC1 (stereo unspecified)	inconclusive: 25.1 µM [inhibitor, single point]	
CCn1cnc2c1c(=O)n(CC(=O)OC1CCCCC1)c(=O)n2Cc1ccccc1		inactive: 16.8%
COc1ccc(CNC(=O)c2cnc(N(C)C)nc2)cc1	inconclusive: 31.6 µM [inhibitor, partial curve, poor fit]	
COCC(=O)N1CCC(C(=O)NCC2(c3ccccc3)CCCCC2)CC1		inactive: -4.59%
Cc1cc(C)c2c(C(=O)N3CCN(C)C4(CCN(C)CC4)C3)cc(C)nc2c1	active: 25.1 µM	
CCn1c(=O)cc(OCC(=O)N2CCN(c3ccc(C)cc3)C(C)C2)c2ccccc21 (stereo unspecified)	inconclusive: 31.6 µM [inhibitor, single point]	
COCc1nc2nccc(-c3ccccc3)n2n1	active: 31.6 µM	
Cc1ccc(-c2cn3c(n2)CO[C@@H](CNC(=O)NCc2ccccc2)C3)cc1	inconclusive: 35.5 µM [inhibitor, single point]	
O=c1oc2ccc(Br)cc2cc1S(=O)(=O)N1CCc2ccccc2C1		inactive: 10.2%
S=c1[nH]ccn1-c1cccc(Cl)c1Cl		inactive: 18.3%
Cc1noc(C)c1-c1cc2c(cc(C)n2C)c(-c2cccc(O)c2)n1	inconclusive: 8.91 µM [inhibitor, partial curve, poor fit]	
CCCC1CCC(c2ccc(C#N)c(=O)[nH]2)CC1 (stereo unspecified)	inconclusive: 25.1 µM [inhibitor, partial curve, poor fit]	

Structure (SMILES)	Potency	activity change, negative = inhibition
Cc1ccc(N2CC(O)=C(c3nc4ccccc4s3)C2=N)cc1O		inactive: 125%
Cc1cccc(NC(=O)CNC(=O)CCc2ncc(-c3ccccc3F)o2)c1C		inactive: 5.59%
Cc1cc(C(=O)OCC(=O)Nc2cc(F)ccc2F)c2ccccc2n1		inactive: -15.8%
COc1coc(CN2Cc3[nH]cnc3CC2C(=O)O)cc1=O (stereo unspecified)		inactive: -14.3%
O=C(NCc1cccnc1)c1cccnc1N1CC2CC(C1)[C@H]1CCCC(=O)N1C2 (stereo partly specified)	active: 28.2 µM	
Cc1ccc(-c2cn3cccnc3n2)cc1NC(=O)Nc1ccc(F)cc1	inconclusive: 28.2 µM [inhibitor, partial curve, poor fit]	
CN1CCN(C(=O)c2ccc(-c3cccs3)s2)CC1	inconclusive: 22.4 µM [inhibitor, partial curve, poor fit]	
CCCC(=O)Nc1ccc2oc(-c3ccc(OC)c(Br)c3)nc2c1	inconclusive: 3.55 µM [inhibitor, full curve, poor fit]	
CC1CCCC/C1=N\NC(=O)CCC(=O)Nc1ccc(Br)cc1 (stereo unspecified)		inactive: 22.3%
Cc1oc(-c2ccccc2)nc1Cn1ccn2nc3c(c2c1=O)CCCC3	active: 28.2 µM	
O=C(Nc1ccc(Cl)c(C(=O)NC2CCCCC2)c1)c1ccncc1		inactive: 3.07%
Cc1cccc(N(C)S(=O)(=O)c2nnc(NC(=O)c3cccs3)s2)c1	inconclusive: 39.8 µM [inhibitor, single point]	
Cc1ccc(C(=O)c2sc(Nc3ccccc3)c(S(=O)(=O)c3ccccc3)c2N)c(C)c1	inconclusive: 28.2 µM [inhibitor, partial curve, poor fit]	
CCOC(=O)c1cccc(NC(=O)Cn2c(=O)c3cccn3c3ccccc32)c1	inconclusive: 25.1 µM [inhibitor, single point]	
CN1CCCC2(CCN(C(=O)CCCOc3ccccc3)C2)C1=O (stereo unspecified)		inactive: 0.644%
Cc1cc(=O)oc2cc(OCC(=O)OCC(=O)Nc3ccc4ccccc4c3)ccc12	inconclusive: 35.5 µM [inhibitor, single point]	
COCCNC(=O)c1sc2ncccc2c1-n1c(C)ccc1C	inconclusive: 28.2 µM [inhibitor, partial curve, poor fit]	
CC(C)n1nc(C(=O)Nc2cccc(S(=O)(=O)N3CCCCCC3)c2)c2ccccc2c1=O		inactive: 3.54%
CN(C)C(CNC(=O)c1cc(=O)c2cc(Cl)ccc2o1)c1cccs1 (stereo unspecified)		inactive: 5.74%
COc1ccccc1-c1nc(C#N)c(NCCN2CCOCC2)o1	inconclusive: 28.2 µM [inhibitor, partial curve, poor fit]	
COc1cccc(-c2cnc3n[nH]c(-c4ccc(F)cc4C)c3n2)c1	inconclusive: 1 µM [inhibitor, full curve, poor fit]	
Cc1cc(C)cc(OCCOC(=O)c2cc(Cl)ccc2O)c1	inconclusive: 28.2 µM [inhibitor, single point]	
CC(C)c1ccc(OCC(=O)c2ccc3c(c2)N(CCCC(=O)N2CCOCC2)C(=O)CO3)cc1		inactive: -30%
